SMILES strings stand for the structures. Some of the results follow.

For the assay, the system named is S. aureus RN4220. In words: growth inhibition call (relative growth <= 0.2). The conditions noted are these: 50 µM.
Consider `C[C@H](CO)N1C[C@H](C)[C@@H](CN(C)Cc2ccc(C(=O)O)cc2)OCc2ccccc2-c2c(n(C)c3ccccc23)C1=O`, for which the growth inhibition call is “inactive”.

For the compound `Cc1cc(C)n([C@@H](C)CN)n1`, the growth inhibition call is “inactive”. The value for `Cc1cc(C(=O)Nc2cccc3c2O[C@H](CN(C)S(=O)(=O)c2cccs2)[C@H](C)CN([C@H](C)CO)C3=O)n(C)n1` was “inactive”. The value for `C[C@H](CO)N1C[C@H](C)[C@H](CN(C)C)Oc2ccc(NC(=O)Cc3cn(C)c4ccccc34)cc2CC1=O` was “inactive”; that for `C[C@H](CO)N1C[C@H](C)[C@H](CN(C)C(=O)Nc2cccc3ccccc23)Oc2ncc(-c3cccc(F)c3)cc2C1=O` was “inactive”; that for `O=C(C[C@@H]1CC[C@@H](NC(=O)CN2CCOCC2)[C@H](CO)O1)NC1CCC1` was “inactive”. As to `C[C@H](CO)N1C[C@H](C)[C@H](CN(C)Cc2ccccc2)Oc2ccc(NC(=O)CCCCCC(=O)Nc3ccccc3N)cc2CC1=O`, the growth inhibition call is “inactive”. In the case of `C#CCN1C(=O)C[C@H](O)C1=O`, the growth inhibition call is “inactive”. With `CC(=O)OCC(CCn1cnc2cnc(N)nc21)COC(C)=O` the entry was “inactive”; with `COc1ccc(S(=O)(=O)N(C)C[C@H]2Oc3ccc(NC(=O)c4ccncc4)cc3C(=O)N([C@H](C)CO)C[C@H]2C)cc1`, “inactive”; with `O=C(N[C@@H]1CC[C@@H](CCNS(=O)(=O)c2ccccc2)O[C@H]1CO)c1cnccn1`, “inactive”. The value for `CN1C(=O)c2cc(NS(=O)(=O)c3ccc(F)cc3)ccc2OC[C@@H]2O[C@@H](CC(=O)NCC(F)(F)F)CC[C@@H]21` was “inactive”; that for `O=c1nc[nH]c2c1ncn2[C@@H]1O[C@H](CO)[C@@H](O)[C@H]1O` was “inactive”.

These data come from the antibiotic and cytotoxicity screens of Wong et al. (2023).
